Screen size: about 48,000 compounds; about 1,200 (2.5%) were called active. Not shown: some 2% with an inconclusive outcome.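 The calls were made as follows: active = activation of at least 60% and not above a set upper limit (about 1 call in 100 departs from these limits); inconclusive = activation of 40% to 60%, or above that upper limit; inactive = activation under 40%.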 Some of the results follow.

Chain of UniProt O75388 (O75388 whole entry, looked up): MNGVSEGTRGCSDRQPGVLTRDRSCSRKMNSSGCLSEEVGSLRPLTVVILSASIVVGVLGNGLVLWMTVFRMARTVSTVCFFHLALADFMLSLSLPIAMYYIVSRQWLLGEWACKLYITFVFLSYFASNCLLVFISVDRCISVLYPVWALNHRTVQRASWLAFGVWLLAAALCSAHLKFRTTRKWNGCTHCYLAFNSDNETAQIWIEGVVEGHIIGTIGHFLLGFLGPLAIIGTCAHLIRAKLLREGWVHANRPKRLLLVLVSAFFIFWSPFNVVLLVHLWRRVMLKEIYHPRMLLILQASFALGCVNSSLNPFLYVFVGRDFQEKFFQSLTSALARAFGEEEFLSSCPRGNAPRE

This test has as its target Probable G-protein coupled receptor 32 (Homo sapiens) (UniProt O75388). Description: qHTS for Agonists of Human Resolvin D1 Receptor DRV1. Also: 0% is about no effect. Particulars: CHO-K1 GPR32 beta-arrestin PathHunter luminescence, 90 min; at 76.9 µM; active compounds read high; zero percent set by DMSO-only wells. The gist of the method:
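Engineered CHO-K1 line co-expressing GPR32-ProLink and EA-beta-arrestin. Compound treatment lasted 90 min at 37 °C. Luminescence was recorded after 1 h with substrate at ambient temperature, relative to DMSO basal wells.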
(In general: qHTS replaces the single test concentration by a dilution series.)
For `CCOc1cc(C)c(C(C)C)cc1S(=O)(=O)n1ccnc1CC`, the activation was inactive: 2.33%. For `COc1ccc(Nc2ncnc3c2nc2n3CCCC2)cc1Cl`, the activation is inactive: 8.28%. In the case of `COc1nnc(-c2ccc(N3CCCCC3)c(NC(=O)c3ccccc3)c2)c2ccccc12`, the activation was inactive: 47.8%. Regarding `O=C(NCC(c1cccnc1)N1CCc2ccccc21)C(=O)Nc1ccccc1F` (stereo not drawn), the activation was inactive: -15.2%. As for `CCc1cccc(NC(=O)c2cccc3c2C(=O)N(C2CCCCC2)C3)c1`, the activation is inactive: -20.5%.

In the case of `CCOC(=O)c1c(C)n(S(=O)(=O)c2ccc(C)cc2)c2ccc(NS(=O)(=O)c3ccc(C)cc3)cc12`, the activation is inactive: -18.3%.

For the compound `CC(NC(=O)c1cc(-c2ccc(Cl)cc2)on1)c1ccccc1` (stereo not drawn), the activation was inactive: -6.59%. In the case of `COc1ccc(CNC(=O)c2ccc3c(c2)N(Cc2ccccc2)CCS3)cc1` it was inactive: -29.6%; in that of `CCOC(=O)c1nnn(CC(=O)NC(=O)Nc2ccc(F)cc2)c1C(=O)OCC`, inactive: -0.693%. In the case of `Cc1ccccc1C(=O)Nc1ccc2oc(-c3ccc(Cl)c(Cl)c3)nc2c1`, the activation was inactive: -2.37%.

As for `Cc1ccccc1Nc1nnc(-c2ccc(C)c(S(=O)(=O)N3CCCCC3)c2)c2ccccc12`, the activation was inactive: -3.38%.

In the case of `O=C(NCC(c1ccc2c(c1)OCO2)N1CCN(c2ccccc2)CC1)c1ccccc1` (stereo not drawn), the activation is inactive: -19.6%. In the case of `CC(C)Oc1ccc(C(=O)Nc2nc3c(s2)CC(C(C)(C)C)CC3)cc1` (stereo not drawn) it was inactive: 7.14%. For the compound `CC1Cn2cc(C(=O)Nc3ccccc3C(F)(F)F)c(=O)c3c(Cl)ccc(c32)O1` (stereo not drawn), the activation is inactive: 4.38%. On to `Cc1nc2nc(C(F)(F)F)[nH]n2c(=O)c1Cc1ccccc1`, for which the activation is inactive: 25.5%.

With `Cc1oc2ncn(CC(C)C)c(=O)c2c1C(=O)N(Cc1ccccc1)C(C)C`, the activation is inactive: -11.4%. Turning to `COc1cc(OC)c(NC(=O)c2cn(C)c(=O)c3cc(OC)c(OC)cc23)cc1Cl`, the activation was inactive: 2.93%. On to `O=C(/C=C/c1ccccc1)N1CCN(Cc2cc(=O)n3nc(-c4ccccc4Cl)sc3n2)CC1`, for which the activation was inactive: -4.38%. In the case of `O=c1c2ccccc2nc2n1CCc1c-2[nH]c2ccccc12` it was inactive: 21.3%; in that of `Cc1ccc(Cn2c(C)c3cnn(CC(=O)N4CCN(c5ccc(F)cc5)CC4)c(=O)c3c2C)cc1`, inactive: -0.22%. With `O=C(CN1C(=O)C2(SCC(=O)N2c2ccc(Cl)cc2)c2ccccc21)NCCc1ccccc1` (stereo not drawn), the activation is inactive: -21.3%. The result for `CCOc1ccccc1NC(=O)c1c(NC(=O)c2ccncc2)sc2c1CCC(C(C)(C)C)C2` (stereo not drawn) reads active: 113%. The result for `COc1ccc(Cl)cc1NS(=O)(=O)c1c(C)[nH]c(=O)[nH]c1=O` reads inactive: 5.84%.

`C#C[C@]1(OC(C)=O)CC[C@H]2[C@@H]3CCC4=C/C(=N/O)CC[C@@H]4[C@H]3CC[C@@]21CC`: the activation was inactive: 31.1%. On to `c1ccc(CNCCNCc2ccccc2)cc1`, for which the activation is inactive: 2.48%. With `O=S(=O)(Nc1cccc(-c2ccc(N3CCCC3)nn2)c1)c1cc(F)ccc1F`, the activation is inactive: -8.58%. On to `CCOc1ccc(S(=O)(=O)Nc2ccc(OC)c(Cl)c2)c2cccnc12`, for which the activation is inactive: 18.9%.

For `Cc1cccc(OCCSc2nc3ccccc3n2CC(=O)N2CCOCC2)c1C`, the activation was inactive: 6.65%. As for `CCOc1ccc(C2C(C(N)=O)=C(C)Nc3nc(-c4cccc(Cl)c4)nn32)cc1OC` (stereo not drawn), the activation is inactive: -18.2%. As to `Cc1ccc(NC(=O)C2CCCN(S(=O)(=O)c3c(C)nn(C)c3C)C2)c(C)c1` (stereo not drawn), the activation was inactive: 6.85%. As to `CCOC(=O)N1CCN(Cc2nc3cc(NC(=O)c4ccc([N+](=O)[O-])cc4)ccc3n2C(C)C)CC1`, the activation is inactive: -8.12%.

As to `CCN1C(=O)c2ccccc2S(=O)c2ccc(C(=O)NCc3ccccc3OC)cc21` (stereo not drawn), the activation was inactive: 8.63%. Consider `CCCCCOc1ccc(NC(=O)Cn2c(-c3cncs3)nc3ccccc32)cc1`, for which the activation was inactive: -14.8%. For `COc1cccc(CNC(=O)Cn2c(SCC(=O)Nc3ccc(C)c(C)c3)nc3ccccc32)c1`, the activation is active: 113%. Take `O=C(O)c1c2c(nc3ccc(S(=O)(=O)N4CCC(C(=O)NCc5ccc(Cl)cc5)CC4)cc13)CCCC2`: the activation is inactive: -29.9%. With `CSc1ccc(NC(=O)Cn2nnnc2-c2ccccc2F)cc1`, the activation is inactive: 43.8%. As for `COc1ccc(S(=O)(=O)NCC(c2ccco2)N2CCN(c3ccccc3F)CC2)cc1C` (stereo not drawn), the activation is inactive: -33.7%. The result for `COc1cc(/C=C/c2nc3cc(Cl)ccc3c(=O)n2-c2ccc(C)cc2C)cc(OC)c1OC` reads inactive: -25.4%; that for `CCOC(=O)c1c(C)oc2nc(C)nc(N3CCN(c4cccc(C)c4C)CC3)c12`, inactive: 4.83%; that for `Cc1cc(Nc2cccc(C(F)(F)F)c2)nc2ccc(NC(=O)c3cccnc3)cc12`, inactive: 19.3%. On to `Cc1ccccc1-c1noc(-c2ccc(N3CCCC3)c([N+](=O)[O-])c2)n1`, for which the activation was inactive: 24.2%. Regarding `CC(=O)N1CCCc2ccc(NC(=O)c3ccc(C(F)(F)F)cc3)cc21`, the activation is inactive: -6.55%.

Regarding `CC(C)c1ccc(-c2noc(SCC(=O)N(C)c3ccc(F)cc3)n2)cc1`, the activation is inactive: 8.05%. Take `CCOC(=O)c1cc(OC(=O)c2cccc(F)c2)n(-c2ccccc2)n1`: the activation was inactive: -5.86%. In the case of `O=C(NCc1cccnc1)C1CCN(Cc2cc3ccccc3n2Cc2ccccc2)CC1` it was inactive: -10.2%; in that of `CCOc1ccc(N(C(=O)c2ccc(OC)cc2)S(=O)(=O)c2ccc3c(c2)n(C)c(=O)n3C)cc1`, inactive: -30.1%.

Regarding `CCC(=O)C1=C(c2ccc(F)cc2)N(C(=O)CC)n2c(nnc2C2CCCCC2)S1`, the activation was inactive: -36.4%. `CC(C)c1ccc(NC(=O)CN2C=NS(=O)(=O)c3ccccc32)cc1`: the activation was inactive: 28.9%. As for `CCC(=O)OC1=CN(Cc2ccccc2)S(=O)(=O)c2ccccc21`, the activation is inactive: -6.54%. Regarding `COC(=O)c1cc2oc(C)cc2n1Cc1ccc(C)cc1`, the activation is inactive: -39.1%. In the case of `CCN(CC)S(=O)(=O)c1ccc2c(c1)N(CC(=O)Nc1c(C)cc(C)cc1C)C(=O)CS2` it was inactive: -18.4%. The result for `Cc1cc(C)cc(NC(=O)CSc2nnc(CNC(=O)c3c(F)cccc3Cl)o2)c1` reads inactive: -6.41%; that for `N#C/C(=C\c1c(Oc2ccc(F)cc2)nc2ccccn2c1=O)c1nc2ccccc2s1`, inactive: 21.9%.

The record behind these values is PubChem BioAssay AID1346428 (National Center for Advancing Translational Sciences (NCATS), 2018).
